PMC4242493
The list shows a part of the results. The list includes weakly bound sequences.

biological target: MaxL homodimer (UniProt P61244); assay: universal protein-binding microarray (PBM); settings: PBS-based mixture, 10 nM His-tagged protein dimer, 2% milk, 200 ng/uL BSA, 50 ng/uL salmon testes DNA, 0.02% TX-100; detection with Alexa 488 anti-His …; high values mean tight binding; most listed sequences are background and not binding sites; double strand, one strand shown
Chain of UniProt P61244 (P61244 whole entry): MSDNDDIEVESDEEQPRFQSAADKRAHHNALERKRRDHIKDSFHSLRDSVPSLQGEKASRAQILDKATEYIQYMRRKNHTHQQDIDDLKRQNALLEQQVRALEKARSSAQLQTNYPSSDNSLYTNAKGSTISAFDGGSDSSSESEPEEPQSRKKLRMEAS

| Sequence | binding signal (normalized occupancy) |
| --- | --- |
| AGCACACG | 0.0942 |
| ATTAGTTG | 0.074 |
| ACAACGTC | 0.0706 |
| AGCCATTA | 0.0779 |
| AGACAGAC | 0.0754 |
| ATTGGATA | 0.076 |
| ACGAATAG | 0.0746 |
| GAAGTGTC | 0.0697 |
| GAATCGGC | 0.0684 |
| CGACGTCC | 0.0695 |
| CCCATAAC | 0.0784 |
| AGTAGATC | 0.0759 |
| AAGGGCGG | 0.0683 |
| CTTGTGGA | 0.0762 |
| CGGCGCGA | 0.0676 |
| AAGCTATT | 0.0752 |
| CGCCGATC | 0.0712 |
| CATATAGA | 0.0864 |
| CGAAAAGC | 0.0632 |
| AGACAACC | 0.0739 |
| ACGTTCTG | 0.0756 |
| GCTCCGCC | 0.064 |
| AGTCGACG | 0.0691 |
| CGGCATGA | 0.0962 |
| ACTCGGGA | 0.0661 |

| Sequence | binding signal (normalized occupancy) |
| --- | --- |
| AAGCGGTC | 0.0675 |
| AGACCCTG | 0.0694 |
| CCGTTGTC | 0.0735 |
| ACGGGCTA | 0.0742 |
| ATGATGGC | 0.0855 |
| AAGTAAAT | 0.0775 |
| ATAGCATG | 0.103 |
| TCCCGAGA | 0.0677 |
| AGCGCCCG | 0.0657 |
| GACTCGGA | 0.068 |
| CGACCGAG | 0.0707 |
| CAAGCTAG | 0.0691 |
| ACTACGTG | 0.0807 |
| GACGCCAA | 0.0691 |
| GAATGATC | 0.0757 |
| ACATTTCT | 0.078 |
| CAACTAAC | 0.0767 |
| AAAACCCA | 0.0746 |
| AGCTACCC | 0.0712 |
| GGTGTAGA | 0.0796 |
| ATAGGTCG | 0.0731 |
| CACTTGGC | 0.0731 |
| AATTCAAA | 0.0767 |
| CATGTAAC | 0.0941 |
| ACTCACGA | 0.0776 |

| Sequence | binding signal (normalized occupancy) |
| --- | --- |
| GCCTGTCA | 0.0734 |
| CTTGACTC | 0.0726 |
| CGTCGTCA | 0.0742 |
| CTATATCA | 0.0879 |
| ACTGACTG | 0.0723 |
| CAGTGACG | 0.0728 |
| AACATGCC | 0.089 |
| ATCAACAT | 0.0891 |
| CAGTAGTC | 0.0718 |
| ACCGAACA | 0.0747 |
| GGTTGCAC | 0.0731 |
| CTCAGATC | 0.0734 |
| GCTGTTAA | 0.077 |
| AATAAAGC | 0.0758 |
| CGGCGAAC | 0.0718 |
| ACGGACAA | 0.0773 |
| CGCAACTC | 0.0673 |
| GCCTGTAC | 0.0712 |
| AAGTACCG | 0.0718 |
| CAGAACGC | 0.07 |
| CGGGTTTC | 0.0787 |
| ACCTACCA | 0.0725 |
| ACAGGCCC | 0.073 |
| CAGCAGAC | 0.0696 |
| GTCGATAA | 0.0777 |

| Sequence | binding signal (normalized occupancy) |
| --- | --- |
| GGTGCACA | 0.078 |
| GCGCCGCC | 0.0666 |
| ACGCCACG | 0.0993 |
| AAATGTGT | 0.0811 |
| ACTCCACG | 0.087 |
| CTAGTTTA | 0.0713 |
| GTTGATGA | 0.0756 |
| AGGAACAT | 0.0776 |
| GAAACTGA | 0.0693 |
| GCCTCAAC | 0.071 |
| CACTTAGA | 0.0744 |
| AGAGCGCT | 0.0684 |
| GCGCGCGA | 0.075 |
| CCCGATCG | 0.0727 |
| AGCGGCTC | 0.0687 |
| CACAACAG | 0.0759 |
| AGTCCAGA | 0.0677 |
| CTGTAAGA | 0.0739 |
| CCTATGGA | 0.0763 |
| CTGTTGTA | 0.0736 |
| AGCGAATA | 0.0765 |
| CGGTGTAG | 0.0813 |
| CCAAGTAG | 0.0701 |
| CTTCGGGA | 0.0664 |
| ACCGACGA | 0.076 |

| Sequence | binding signal (normalized occupancy) |
| --- | --- |
| CAATGTAG | 0.0752 |
| GAAATTCC | 0.071 |
| AGACGCCG | 0.0686 |
| AGATGAAG | 0.0748 |
| AGGGCAAT | 0.0741 |
| ACGCCAAA | 0.0716 |
| ACTAGGAC | 0.0705 |
| GCCTGTCC | 0.0705 |
| AAACTCGA | 0.0712 |
| CGACCCGC | 0.0737 |
| TAATAAAA | 0.0775 |
| ATAGCAGC | 0.074 |
| CAACGGCA | 0.073 |
| TAATGCCA | 0.0764 |
| TCCAGAAA | 0.0716 |
| CGCCATTC | 0.0761 |
| CCAAACGC | 0.073 |
| GGGCGTAA | 0.0785 |
| ATTTGGCC | 0.0744 |
| CAGAGTTC | 0.0676 |
| TCCTGGCA | 0.0724 |
| GGAACGCC | 0.0729 |
| ACCGCCGG | 0.0692 |
| ACCGGGAA | 0.0746 |
| AGAGATCT | 0.0762 |

| Sequence | binding signal (normalized occupancy) |
| --- | --- |
| CAATACCA | 0.0823 |
| CCTTCCCA | 0.0748 |
| CGGCACGC | 0.0851 |
| TGATGGAA | 0.0835 |
| GTATCGCA | 0.0739 |
| ATGCAGGA | 0.0793 |
| GGATTGCA | 0.0751 |
| TCACATAA | 0.0812 |
| CCAAGATC | 0.0712 |
| AGGGGCGC | 0.0731 |
| ACCTCCCA | 0.0834 |
| CGACCTCA | 0.0854 |
| ACCTCCCT | 0.0732 |
| CTGAATAA | 0.0766 |
| CGAAGCAA | 0.0734 |
| GAAACGGA | 0.0715 |
| CACCGTGA | 0.0822 |
| TAACGGGA | 0.0763 |
| ACTTAGAC | 0.0725 |
| TCACTACA | 0.0758 |
| AACATAGG | 0.0799 |
| ATTGGTGC | 0.0699 |
| TCATCGCA | 0.0775 |
| AAATTGGA | 0.0736 |
| GCAGGCAC | 0.0718 |

| Sequence | binding signal (normalized occupancy) |
| --- | --- |
| CTGCCTGA | 0.0745 |
| TCAGCCGA | 0.0691 |
| ATGGAGTC | 0.0808 |
| CTTACAAG | 0.0751 |
| CTACAAGC | 0.0715 |
| GCAGTCAC | 0.0758 |
| ATGGCGTC | 0.077 |
| CAGTCTTC | 0.0712 |
| ATGTTACG | 0.0818 |
| CTGTCCCA | 0.0819 |
| CGGAAGCC | 0.0624 |
| CAGACGGA | 0.0682 |
| ACGACTTA | 0.0774 |
| ATTGACCA | 0.0826 |
| TACAGCGA | 0.0766 |
| ATTACCCG | 0.0805 |
| AGACTCCC | 0.072 |
| GCCTCGAA | 0.0679 |
| TACAGTCA | 0.082 |
| ACCTCTTG | 0.0707 |
| ACTGCCCG | 0.0714 |
| ATGTACAA | 0.0815 |
